Source: PMC7795355
These are yes or no findings as the source states them, for the method shown. Binding seen in cells or lysates may run through a third protein. Some results given as binding are weak or reduced against the parent protein; the word gives no strength. Sequences can lack the tags named with a protein.

T1: OsMre11 (Meiotic recombination 11 of rice), BiFC fusion (Oryza sativa (rice)) (UniProt Q7XQR9)
T1 sequence: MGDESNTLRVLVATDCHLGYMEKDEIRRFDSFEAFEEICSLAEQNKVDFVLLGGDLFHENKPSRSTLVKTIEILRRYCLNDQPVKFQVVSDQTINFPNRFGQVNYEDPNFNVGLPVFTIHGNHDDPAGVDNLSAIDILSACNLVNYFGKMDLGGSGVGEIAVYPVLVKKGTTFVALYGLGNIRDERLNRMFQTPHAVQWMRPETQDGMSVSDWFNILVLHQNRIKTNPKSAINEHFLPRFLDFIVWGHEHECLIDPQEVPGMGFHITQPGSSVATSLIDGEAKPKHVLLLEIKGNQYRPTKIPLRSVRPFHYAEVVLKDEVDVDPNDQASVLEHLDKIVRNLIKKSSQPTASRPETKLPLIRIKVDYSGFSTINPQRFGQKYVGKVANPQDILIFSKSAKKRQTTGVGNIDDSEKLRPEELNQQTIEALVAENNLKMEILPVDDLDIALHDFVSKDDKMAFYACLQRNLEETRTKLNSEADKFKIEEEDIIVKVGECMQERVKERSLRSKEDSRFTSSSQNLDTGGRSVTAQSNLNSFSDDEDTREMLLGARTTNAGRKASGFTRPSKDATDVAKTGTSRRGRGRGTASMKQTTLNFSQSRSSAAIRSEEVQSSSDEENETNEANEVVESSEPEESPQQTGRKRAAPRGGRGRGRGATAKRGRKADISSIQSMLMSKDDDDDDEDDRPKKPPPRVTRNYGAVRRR

T2: OsNbs1 (Nijmegen breakage syndrome 1 of rice), BiFC fusion (Oryza sativa (rice)) (UniProt Q7XD82)
T2 sequence: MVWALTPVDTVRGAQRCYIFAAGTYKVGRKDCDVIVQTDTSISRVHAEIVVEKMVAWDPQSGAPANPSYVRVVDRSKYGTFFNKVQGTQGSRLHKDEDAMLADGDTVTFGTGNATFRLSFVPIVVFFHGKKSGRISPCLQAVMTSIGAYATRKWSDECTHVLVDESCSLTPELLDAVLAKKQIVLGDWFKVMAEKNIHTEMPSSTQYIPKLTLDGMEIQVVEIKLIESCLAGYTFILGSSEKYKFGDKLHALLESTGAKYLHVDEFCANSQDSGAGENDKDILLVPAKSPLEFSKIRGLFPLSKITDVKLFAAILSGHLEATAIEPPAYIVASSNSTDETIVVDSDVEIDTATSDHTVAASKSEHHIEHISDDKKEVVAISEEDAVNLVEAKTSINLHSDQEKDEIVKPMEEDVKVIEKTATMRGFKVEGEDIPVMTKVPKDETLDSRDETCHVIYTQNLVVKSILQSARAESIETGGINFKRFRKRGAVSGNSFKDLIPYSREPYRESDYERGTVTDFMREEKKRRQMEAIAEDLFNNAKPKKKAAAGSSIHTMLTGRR

T3: OsNbs1-3×Myc (Oryza sativa (rice)) (UniProt Q7XD82)
T3 sequence: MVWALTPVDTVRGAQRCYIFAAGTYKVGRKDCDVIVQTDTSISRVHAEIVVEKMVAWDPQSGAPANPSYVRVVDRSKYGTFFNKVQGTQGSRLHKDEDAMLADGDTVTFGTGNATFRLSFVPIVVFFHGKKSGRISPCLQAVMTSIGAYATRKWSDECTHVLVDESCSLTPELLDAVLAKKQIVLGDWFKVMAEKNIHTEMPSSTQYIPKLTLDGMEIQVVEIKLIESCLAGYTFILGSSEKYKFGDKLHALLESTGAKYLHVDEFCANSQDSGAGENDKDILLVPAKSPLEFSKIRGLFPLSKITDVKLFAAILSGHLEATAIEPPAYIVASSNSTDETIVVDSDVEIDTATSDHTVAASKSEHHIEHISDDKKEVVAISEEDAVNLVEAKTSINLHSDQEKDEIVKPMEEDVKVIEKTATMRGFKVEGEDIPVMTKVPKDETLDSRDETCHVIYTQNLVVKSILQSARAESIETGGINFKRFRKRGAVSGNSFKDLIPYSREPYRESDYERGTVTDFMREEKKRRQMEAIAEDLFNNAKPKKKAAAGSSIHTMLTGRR


Legend:
[1] = biological target: T1, OsMre11 (Meiotic recombination 11 of rice), BiFC fusion (Oryza sativa (rice)); assay: split reporter; BiFC with split YFP (YN and YC fusions) transiently co-expressed in tobacco (Nicotiana benthamiana) leaf epidermis cells; fluorescence observed about 36 h later
[2] = biological target: T2, OsNbs1 (Nijmegen breakage syndrome 1 of rice), BiFC fusion (Oryza sativa (rice)); assay: as above
[3] = biological target: T3, OsNbs1-3×Myc (Oryza sativa (rice)); assay: co-IP; two of the fusion proteins transiently co-expressed in tobacco leaf cells; immunoprecipitated with anti-Flag or anti-Myc antibody, blotted with anti-GFP, anti-Flag, anti-Myc; IgG as negative control
[4] = biological target: T3, OsNbs1-3×Myc (Oryza sativa (rice)); assay: co-IP; OsMre11-GFP, OsRad50-3×Flag and OsNbs1-3×Myc, all three transiently co-expressed in tobacco leaf cells; immunoprecipitated with anti-Myc antibody, blotted with anti-Myc, anti-GFP and anti-Flag; IgG as negative control

binding [1]	binding [2]	binding [3]	binding [4]	Binder
binds	binds			OsMre11 (Meiotic recombination 11 of rice), BiFC fusion (protein, UniProt Q7XQR9 1-705) MGDESNTLRVLVATDCHLGYMEKDEIRRFDSFEAFEEICSLAEQNKVDFVLLGGDLFHENKPSRSTLVKTIEILRRYCLNDQPVKFQVVSDQTINFPNRFGQVNYEDPNFNVGLPVFTIHGNHDDPAGVDNLSAIDILSACNLVNYFGKMDLGGSGVGEIAVYPVLVKKGTTFVALYGLGNIRDERLNRMFQTPHAVQWMRPETQDGMSVSDWFNILVLHQNRIKTNPKSAINEHFLPRFLDFIVWGHEHECLIDPQEVPGMGFHITQPGSSVATSLIDGEAKPKHVLLLEIKGNQYRPTKIPLRSVRPFHYAEVVLKDEVDVDPNDQASVLEHLDKIVRNLIKKSSQPTASRPETKLPLIRIKVDYSGFSTINPQRFGQKYVGKVANPQDILIFSKSAKKRQTTGVGNIDDSEKLRPEELNQQTIEALVAENNLKMEILPVDDLDIALHDFVSKDDKMAFYACLQRNLEETRTKLNSEADKFKIEEEDIIVKVGECMQERVKERSLRSKEDSRFTSSSQNLDTGGRSVTAQSNLNSFSDDEDTREMLLGARTTNAGRKASGFTRPSKDATDVAKTGTSRRGRGRGTASMKQTTLNFSQSRSSAAIRSEEVQSSSDEENETNEANEVVESSEPEESPQQTGRKRAAPRGGRGRGRGATAKRGRKADISSIQSMLMSKDDDDDDEDDRPKKPPPRVTRNYGAVRRR
		binds	binds	OsMre11-GFP (protein, UniProt Q7XQR9 1-705) MGDESNTLRVLVATDCHLGYMEKDEIRRFDSFEAFEEICSLAEQNKVDFVLLGGDLFHENKPSRSTLVKTIEILRRYCLNDQPVKFQVVSDQTINFPNRFGQVNYEDPNFNVGLPVFTIHGNHDDPAGVDNLSAIDILSACNLVNYFGKMDLGGSGVGEIAVYPVLVKKGTTFVALYGLGNIRDERLNRMFQTPHAVQWMRPETQDGMSVSDWFNILVLHQNRIKTNPKSAINEHFLPRFLDFIVWGHEHECLIDPQEVPGMGFHITQPGSSVATSLIDGEAKPKHVLLLEIKGNQYRPTKIPLRSVRPFHYAEVVLKDEVDVDPNDQASVLEHLDKIVRNLIKKSSQPTASRPETKLPLIRIKVDYSGFSTINPQRFGQKYVGKVANPQDILIFSKSAKKRQTTGVGNIDDSEKLRPEELNQQTIEALVAENNLKMEILPVDDLDIALHDFVSKDDKMAFYACLQRNLEETRTKLNSEADKFKIEEEDIIVKVGECMQERVKERSLRSKEDSRFTSSSQNLDTGGRSVTAQSNLNSFSDDEDTREMLLGARTTNAGRKASGFTRPSKDATDVAKTGTSRRGRGRGTASMKQTTLNFSQSRSSAAIRSEEVQSSSDEENETNEANEVVESSEPEESPQQTGRKRAAPRGGRGRGRGATAKRGRKADISSIQSMLMSKDDDDDDEDDRPKKPPPRVTRNYGAVRRR
binds	no binding			OsNbs1 (Nijmegen breakage syndrome 1 of rice), BiFC fusion (protein, UniProt Q7XD82 1-560) MVWALTPVDTVRGAQRCYIFAAGTYKVGRKDCDVIVQTDTSISRVHAEIVVEKMVAWDPQSGAPANPSYVRVVDRSKYGTFFNKVQGTQGSRLHKDEDAMLADGDTVTFGTGNATFRLSFVPIVVFFHGKKSGRISPCLQAVMTSIGAYATRKWSDECTHVLVDESCSLTPELLDAVLAKKQIVLGDWFKVMAEKNIHTEMPSSTQYIPKLTLDGMEIQVVEIKLIESCLAGYTFILGSSEKYKFGDKLHALLESTGAKYLHVDEFCANSQDSGAGENDKDILLVPAKSPLEFSKIRGLFPLSKITDVKLFAAILSGHLEATAIEPPAYIVASSNSTDETIVVDSDVEIDTATSDHTVAASKSEHHIEHISDDKKEVVAISEEDAVNLVEAKTSINLHSDQEKDEIVKPMEEDVKVIEKTATMRGFKVEGEDIPVMTKVPKDETLDSRDETCHVIYTQNLVVKSILQSARAESIETGGINFKRFRKRGAVSGNSFKDLIPYSREPYRESDYERGTVTDFMREEKKRRQMEAIAEDLFNNAKPKKKAAAGSSIHTMLTGRR
